Test results: publication PMC7819943, “Rice protein-binding microarrays: a tool to detect cis-acting elements near promoter regions in rice”
This is one part of the list.

Biological target: T1, OsWOX13 (Oryza sativa, UniProt Q5QMM3 1-267)
T1 sequence: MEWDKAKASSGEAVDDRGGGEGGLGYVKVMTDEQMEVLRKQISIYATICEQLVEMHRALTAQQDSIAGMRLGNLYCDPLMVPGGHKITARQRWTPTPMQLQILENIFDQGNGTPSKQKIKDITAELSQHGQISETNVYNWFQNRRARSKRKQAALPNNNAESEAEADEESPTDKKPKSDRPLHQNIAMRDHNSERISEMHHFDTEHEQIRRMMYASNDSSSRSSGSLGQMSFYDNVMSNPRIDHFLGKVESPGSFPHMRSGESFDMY
Assay: protein-binding microarray (RPBM); PBS, 2% BSA, 51.3 ng/ul salmon testes DNA, 50 uM zinc acetate, 200 nM TF, 25 C, 1 h; high values mean tight binding
Conditions: protein: recombinant; tags: N-terminal polyhistidine and DsRed monomer fusion (pET32a); label: CyDye5-dUTP incorporated in the synthesized complementary strand; 3' TTTTT single-stranded linker to array surface; dsDNA, one strand shown
Outline: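 Per-feature fluorescence intensity (arbitrary units), read on an Axon 4000B scanner, is the binding signal. Transcription factors carrying an N-terminal polyhistidine tag and DsRed fusion were expressed in E. coli BL21-CodonPlus and purified on Ni–NTA. A custom Agilent array, made double-stranded by primer extension with Cy5-dUTP and blocked with 2% BSA, was incubated with 200 nM protein in PBS, 2% BSA, salmon testes DNA and 50 µM zinc acetate at 25 °C for 1 h and then washed.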

Sequence	binding signal
GGCTTCAGATTATTGATTTTAAGCGAGAAAACACTCTTACCGGAGTCACCTAGTGCAG	3640 fluorescence intensity (a.u.)
AGCAACTAATTGGTCTACTCGATCTCTCCATCTTTTGGCCCGGAGTCACCTAGTGCAG	29000 fluorescence intensity (a.u.)
AAAATTGAAATTTTCAACATTAAATTTGGATTAGATTTTGCGGAGTCACCTAGTGCAG	19200 fluorescence intensity (a.u.)
AGGTCTTGATTACCAAGGGAAATTGTTTACACTAAACCTGCGGAGTCACCTAGTGCAG	33400 fluorescence intensity (a.u.)
GGTAATTTGTTTCTCCATCTTTCTTTCATTAGTGCTTGACCGGAGTCACCTAGTGCAG	26100 fluorescence intensity (a.u.)
ATGTTCCAAATTAATCTGACAAGAGAGCAACAATCGTTGCCGGAGTCACCTAGTGCAG	3780 fluorescence intensity (a.u.)
GAGTACAGATGAAATTTGTAGAAATTGGAATGGTCATGTACGGAGTCACCTAGTGCAG	3810 fluorescence intensity (a.u.)
CCAAATGATTAATTTGGAGGACTTATTTGGACGTTTTGAACGGAGTCACCTAGTGCAG	42300 fluorescence intensity (a.u.)
TATAATTTAGAAAATAACAATGTATTCAATATATGGTTAACGGAGTCACCTAGTGCAG	7400 fluorescence intensity (a.u.)
CTTTTAAAGGTGATTGATATTATTCCCTCCCTACCTATAGCGGAGTCACCTAGTGCAG	27200 fluorescence intensity (a.u.)
CCTTAACTTGTCACTGATTACGAAATCGTCCTCCAACCACCGGAGTCACCTAGTGCAG	30500 fluorescence intensity (a.u.)
AAAACTGACTGCAGAAATTGATTCAACCCAGTAAGGCCAGCGGAGTCACCTAGTGCAG	32400 fluorescence intensity (a.u.)
CCACAAGTAATTTGAAACAGATATACTTCCAGCTATGCATCGGAGTCACCTAGTGCAG	5390 fluorescence intensity (a.u.)
ATATTTTAAATAGTACTAAATTATTCTATAAATTTGGTCACGGAGTCACCTAGTGCAG	4350 fluorescence intensity (a.u.)
GATCTAAACATGGCCTTAATTTATCGTCATAATTAAATGACGGAGTCACCTAGTGCAG	5690 fluorescence intensity (a.u.)
CACTAATTACTTTCGCATCCTACGTGCATTTACTTAATCCCGGAGTCACCTAGTGCAG	34000 fluorescence intensity (a.u.)
CCCAATGATTAATGTCTTAATCACATTGATTAGCAACTAACGGAGTCACCTAGTGCAG	30300 fluorescence intensity (a.u.)
TATATGACTCCAGATTGATTCATCACGGACATCGTGAAGACGGAGTCACCTAGTGCAG	7570 fluorescence intensity (a.u.)
TCAATTACAGTCAAATGGATAATAAATGCATCTTGTTGATCGGAGTCACCTAGTGCAG	3240 fluorescence intensity (a.u.)
ATATATGCATAGTTAATTGGTTATTATATGTTGTACTGTCCGGAGTCACCTAGTGCAG	17700 fluorescence intensity (a.u.)
AAATCCCATAACAATCAATCATGCTGTGCCTGTGCTTAACCGGAGTCACCTAGTGCAG	20200 fluorescence intensity (a.u.)

Sequence	binding signal
CTTATTCACTTGTGATTGTGATGATTAGCGAACAGAGTTGCGGAGTCACCTAGTGCAG	18700 fluorescence intensity (a.u.)
AATAGATTACTCCACTATTTAGTAAGTACTCCCGTTGTTTCGGAGTCACCTAGTGCAG	3830 fluorescence intensity (a.u.)
AAAATACTGACTGGATTGTCATACGTGTGCCACGTTGGCCCGGAGTCACCTAGTGCAG	4630 fluorescence intensity (a.u.)
GACATTTGTGCCACTTGGCATGAATCTAATTTAACATTCTCGGAGTCACCTAGTGCAG	46300 fluorescence intensity (a.u.)
TAAGCAATTACAGTAACACACTATGTTACTATAAAACATGCGGAGTCACCTAGTGCAG	4780 fluorescence intensity (a.u.)
TTCTCATAAATTTAAGGTGAAATGTCCATTTTGTCCATACCGGAGTCACCTAGTGCAG	3740 fluorescence intensity (a.u.)
CATAGACCATTTCATTTGATTAGCACTCCAAATAGACACACGGAGTCACCTAGTGCAG	11200 fluorescence intensity (a.u.)
CATGATAGATCAGGCAGAGAGCAGATCAGAGCAAGCATGTCGGAGTCACCTAGTGCAG	11800 fluorescence intensity (a.u.)
CAACCAATCACACCCCAAGCTGAGCAAATACTCCACGAAACGGAGTCACCTAGTGCAG	5790 fluorescence intensity (a.u.)
AATAAAATAAATGATCAAATGAATTATGAAAACTCGTGACCGGAGTCACCTAGTGCAG	5260 fluorescence intensity (a.u.)
TCTCTCATCAATTGGGTTGATATTATATTGGCAGGGCCAGCGGAGTCACCTAGTGCAG	4760 fluorescence intensity (a.u.)
ATGTTTGGAAATTAATTATAAATATTAAACGTAGACTATTCGGAGTCACCTAGTGCAG	9050 fluorescence intensity (a.u.)
GTGAAGATTTAATTGTAACGAAGACAATAGTGTAATTGGACGGAGTCACCTAGTGCAG	16400 fluorescence intensity (a.u.)
GGGGTGACAAATTAATTGATTTGATCCCAAGATAATGGTGCGGAGTCACCTAGTGCAG	50700 fluorescence intensity (a.u.)
AGATGAGAGTAGACAATTAATTTATGTATGTTTTCTGTGGCGGAGTCACCTAGTGCAG	3150 fluorescence intensity (a.u.)
CCTAACAGTATTGATAATCAGTAGCCCTGATAATTAAGATCGGAGTCACCTAGTGCAG	15200 fluorescence intensity (a.u.)
TAGATTAGCTTAATTAATACCATTTTCATTAGTAGGAAAGCGGAGTCACCTAGTGCAG	25900 fluorescence intensity (a.u.)
AATATATTGACATTGATATCTTATAAAGAGCCTATAGATACGGAGTCACCTAGTGCAG	5820 fluorescence intensity (a.u.)
TTCAGCGTAATTTGTATGGTTCTATTAACCTGCAATTTCGCGGAGTCACCTAGTGCAG	7150 fluorescence intensity (a.u.)
AATAGATTGTTTGCTCACGTTAACATAGCAACATCTGGAACGGAGTCACCTAGTGCAG	30900 fluorescence intensity (a.u.)
CTATATCAAATTATTATCAATCCGTTATATATTCTCACCGCGGAGTCACCTAGTGCAG	14800 fluorescence intensity (a.u.)

Sequence	binding signal
CGTTTTGATGGATGGCTCAGATCGGTTCCGAATCGATCAACGGAGTCACCTAGTGCAG	5120 fluorescence intensity (a.u.)
AACATATAACCAATCAGCATTATATTGCTTTAATCATCTCCGGAGTCACCTAGTGCAG	13600 fluorescence intensity (a.u.)
TAACTACACAGATTGCATGTAAATTACGGGACGAACCTTTCGGAGTCACCTAGTGCAG	5900 fluorescence intensity (a.u.)
TGCTGTCATCAAATTGTCTATCATTTCATTCATGCAAGGTCGGAGTCACCTAGTGCAG	4990 fluorescence intensity (a.u.)
GTGGTTACCGAGTAATTGAGACAGAAACAGGTTAAGTTGGCGGAGTCACCTAGTGCAG	8760 fluorescence intensity (a.u.)
ATTTAAATTGGATATATAAACTTTTGACTTATAAACTTTACGGAGTCACCTAGTGCAG	10400 fluorescence intensity (a.u.)
TTTGCCTTTGATTAATAAAATACTGGTGCTTAGTACTACACGGAGTCACCTAGTGCAG	6480 fluorescence intensity (a.u.)
TTCAGAATGATTAGCCGGTCACGACCTGTTCTAATGACCCCGGAGTCACCTAGTGCAG	18300 fluorescence intensity (a.u.)
CTAAAATTTAATTAATCATACGACAGTGAATTTCTCATTTCGGAGTCACCTAGTGCAG	20300 fluorescence intensity (a.u.)
ATACAATTGATTATAACTTATAACACTTATTAATGTCTTACGGAGTCACCTAGTGCAG	24900 fluorescence intensity (a.u.)
GACATGACTGGACTAACTTGGATCATATTGCTGCTAGCTACGGAGTCACCTAGTGCAG	12900 fluorescence intensity (a.u.)
ATTGTAATTAATTAAGTACTGACAGTACTGAGCACTGACACGGAGTCACCTAGTGCAG	28400 fluorescence intensity (a.u.)
GTAGCATTAGATTGTGTTAATTCTGATACCATGGGGCTATCGGAGTCACCTAGTGCAG	6200 fluorescence intensity (a.u.)
ATTAATTGCTTTTCTTTCTTTAATTTGGACCAGGCAGTGACGGAGTCACCTAGTGCAG	28600 fluorescence intensity (a.u.)
TAATATTTAATTTCTATCAACATCTGACTACTTAATATTGCGGAGTCACCTAGTGCAG	7790 fluorescence intensity (a.u.)
CATGATTTCTTAAAGTGGGCCATTAATAAATACATCATCTCGGAGTCACCTAGTGCAG	14300 fluorescence intensity (a.u.)
TTTAAAATAATTAATATCTAATTAATTATGCGTTAATGGCCGGAGTCACCTAGTGCAG	48900 fluorescence intensity (a.u.)
TATATATATATATATATATATGTATGTATGTATATATATACGGAGTCACCTAGTGCAG	16600 fluorescence intensity (a.u.)
CTTATGCTAACTGAACATTAAATTAACTGGAGCTAAGCTTCGGAGTCACCTAGTGCAG	9860 fluorescence intensity (a.u.)
TAAAGTTAATTACACACATCACATTGCCAATATATATGGTCGGAGTCACCTAGTGCAG	25500 fluorescence intensity (a.u.)
ATAAATTTATAGGTAAAACTTTTATATAGATGTTCTTGGTCGGAGTCACCTAGTGCAG	15300 fluorescence intensity (a.u.)

Sequence	binding signal
TATTGATTAAATACCTGATCTGATTCTGCATATGATTCAACGGAGTCACCTAGTGCAG	10200 fluorescence intensity (a.u.)
CTTAGTAATTCAGATAGTTAAATTAATTCCCAGCGTTGAGCGGAGTCACCTAGTGCAG	3900 fluorescence intensity (a.u.)
CATCAATTTGTTTCGCTATCCTCCTCGCTCCACCGATTAGCGGAGTCACCTAGTGCAG	5080 fluorescence intensity (a.u.)
TACAAATAAATTTTGTTGAAATTCAGGAATCGGTCGTGTCCGGAGTCACCTAGTGCAG	3990 fluorescence intensity (a.u.)
GGATTTGATTGGATAAGCCGCTCGTAAGGACACCGTGCCTCGGAGTCACCTAGTGCAG	52300 fluorescence intensity (a.u.)
TTTTCCTGATCAAGTCAATCACACAGCTATCTTGCTCTTCCGGAGTCACCTAGTGCAG	9440 fluorescence intensity (a.u.)
TGGATTAATTAGTAGCACAACTATGGATGCACAACCTTAGCGGAGTCACCTAGTGCAG	16500 fluorescence intensity (a.u.)
CAATAGATAGCCTAAATTTAAATTTGTTTGAACCTGTGCCCGGAGTCACCTAGTGCAG	23900 fluorescence intensity (a.u.)
ACAAATTGGGTTAATGGGCCGGATGATTCTAAATGGGCCCCGGAGTCACCTAGTGCAG	23800 fluorescence intensity (a.u.)
CCCTGATTAGAGCTCTTTGCAAACTGTGTTTTGTATTAGCCGGAGTCACCTAGTGCAG	41600 fluorescence intensity (a.u.)
TACCTTTTAATTTTCCCCATCCTTATCCTATTCCTATCTCCGGAGTCACCTAGTGCAG	3240 fluorescence intensity (a.u.)
CGCCACTGACAGGTGGTCCCAGGGCCGTGATGGACCCACCCGGAGTCACCTAGTGCAG	3500 fluorescence intensity (a.u.)
CCTGAGACATCCAATCATAATCATCATGTGCTAGACTGTACGGAGTCACCTAGTGCAG	16800 fluorescence intensity (a.u.)
TCTAATTTCTTCCCTTGCAGATTGATCTTGTTAGTGAGCCCGGAGTCACCTAGTGCAG	20700 fluorescence intensity (a.u.)
ATTTGATCAAATCTTCCTATGTTCCTCCTGTATTCCTTTACGGAGTCACCTAGTGCAG	6780 fluorescence intensity (a.u.)
CCAAATTTGGACTCCTTCCAAATTTGACTCCACATCCCATCGGAGTCACCTAGTGCAG	4030 fluorescence intensity (a.u.)
TTAGATCAATTGGTAAAATGATTGTTATGTGCATAGTAGCCGGAGTCACCTAGTGCAG	25900 fluorescence intensity (a.u.)
GCCTCCTCATTATTAATATCTGTACTCCATATTCTACTACCGGAGTCACCTAGTGCAG	3540 fluorescence intensity (a.u.)
CTGCTGCTTGATTATTTGGGTTCAACTGGCAAGAACTATGCGGAGTCACCTAGTGCAG	8890 fluorescence intensity (a.u.)
ACATAATTTGCTACCACGTTTGTGACCGCTAATCTTCCCTCGGAGTCACCTAGTGCAG	23600 fluorescence intensity (a.u.)
GCCACATTGTGATTTGTTTTAAAAGAACAGATGGAATAGTCGGAGTCACCTAGTGCAG	8400 fluorescence intensity (a.u.)
